Positions count from the first letter of the chain named. This is one part of the list.

First the molecules themselves.
T1: UNK ZnF1-3 (human, UniProt Q9C0B0 31-174)
T1 sequence: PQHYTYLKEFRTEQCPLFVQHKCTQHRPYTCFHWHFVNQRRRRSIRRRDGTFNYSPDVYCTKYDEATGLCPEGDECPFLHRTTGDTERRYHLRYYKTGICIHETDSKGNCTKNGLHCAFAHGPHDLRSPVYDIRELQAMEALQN

B1: chr22:19452774:19452775:-_ENSG00000070010_ENST00000399523|hu_hu|hu_hu_hu_mus_False|58_58 (ssRNA)
RNA: GGGAGUUCUACAGUCCGACGAUCCUUCUCAUUGUAGUUGAUAGCAAUCACAUCUCCAGUCGUCAGACAGGCGAAGUUCCUAAGUGCAUUUUCUAAUACCGCUUUAGGGUUGGUAAUAUCCAGGAAGUCUGGGCUCUGAGGCUGCAACAGAGGAUUGAGCAUCA
B2: chr4:115894766:115894767:+_ENSMUSG00000028698_ENSMUST00000030464|mus_hu|mus_mus_mus_hu_True|48_108 (ssRNA)
RNA: GGGAGUUCUACAGUCCGACGAUCUUCACACGGAAAUUGUACUUCGGGUUUUCCAACGGCCAGUACCAGUCCGGCCAAACUACCCGAUGAGGACAAGCCCCCUCUCUCCUACAGAACACAACAAAAUGCCCCCGAACUUUCAAGCAACAGAGGAUUGAGCAUCA
B3: chr22:19452774:19452775:-_ENSG00000070010_ENST00000399523|hu_hu|hu_hu_hu_mus_False|1_108 (ssRNA)
RNA: B1 RNA with C27U, G33A, C78U, A81C, G83A, C141U
B4: chr7:75932113:75932114:+_ENSG00000106211_ENST00000248553|hu_hu|hu_hu_hu_mus_False|1_98 (ssRNA)
RNA: GGGAGUUCUACAGUCCGACGAUCCUGCGACCACUCAUCCGGCAGCCGGGGCACCCCGAAAGCUUGAUCGAAGAGGCGGCUGUGUGCAGGGUACCAGUCCCGGAAUGGUUCCCAGCUCGGGCUCCGCAGCAGCGAGAGGACGCGCAACAGAGGAUUGAGCAUCA
B5: chr9:95013113:95013114:-_ENSG00000196305_ENST00000443024|hu_hu|hu_hu_hu_mus_False|58_78 (ssRNA)
RNA: GGGAGUUCUACAGUCCGACGAUCCUCAGUCAGAAAGGGCGUGUAAGGGGCCAUCAGUCUGCAAAGAGAAAGCAGGACACUAAACAAUGUCUCCAGAGCCAUGACACAGUCUUCCACCCCACUCUCACCCUUUAACCUCCUCCUCAACAGAGGAUUGAGCAUCA
B6: chr16:23113652:23113653:+_ENSMUSG00000022884_ENSMUST00000115341|mus_hu|motif|central (ssRNA)
RNA: GGGAGUUCUACAGUCCGACGAUCCCACAAGUAUAUUAUUAAAUGAUAGAGAACAUCUAAUACAACCAUUUCUACAGAACGGGGAAAUAAAUUUCUAAGAAAGAAAGAUUUUACAGACCCCAUCUUUUAUACCCACCCCAACAGCAACAGAGGAUUGAGCAUCA
B7: chr2:120842415:120842416:+_ENSMUSG00000023572_ENSMUST00000060455|mus_mus|motif|central (ssRNA)
RNA: GGGAGUUCUACAGUCCGACGAUCCUCUCCUAGCCUGGAGUCUUGGUAACAAUCUCUUCUUAAGGACAGAGGCUGCCUUUCGGUCGAGCAAACACCCUGUCAAAGCUCCACUUCUAAAAGCAGACGUUAAAAAAACUUAAAAAACAACAGAGGAUUGAGCAUCA
B8: chr11:4127340:4127341:+_ENSG00000167325_ENST00000300738|hu_mus|hu_hu_hu_mus_False|38_98 (ssRNA)
RNA: GGGAGUUCUACAGUCCGACGAUCGGCAUAGUCAGGGUGCUUAGUAGUCAAGGUCGCGGCUGUCUCAGCAGCCAGGGUGUCCAGUUCCACUGUGGUGACCCCACUGUAUAGGCCUUGGAUUACUUUCAUGGUGAUCUGAGCAGGCAACAGAGGAUUGAGCAUCA
B9: chr19:8913615:8913616:-_ENSMUSG00000071658_ENSMUST00000096259|mus_hu|mus_mus_mus_hu_False|48_98 (ssRNA)
RNA: GGGAGUUCUACAGUCCGACGAUCAGGGUACCAAAACACCCUGCCUCAAAUGGGUGCCCCACCCAGUAGGGAGUUGCAGCUGAAAGUAUCCGUAGCAGAAGCAGUGACUAUACGAAAGGAGGCCCCUGGGGAGGGCCAGGCCAGCAACAGAGGAUUGAGCAUCA
B10: chr7:54825262:54825263:-_ENSG00000132432_ENST00000352861|hu_hu|hu_hu_hu_mus_False|88_88 (ssRNA)
RNA: GGGAGUUCUACAGUCCGACGAUCCUGCCGGCUGGGCUCCACAAACUUUACCUGAUCAUCCAUGUUUGUUGGAUGGCGGAUUGAGAGCGUAGAGACACGUAGCUCAGGAGAGAACCGAGCCCAACGGAACCGGAAGCUGGCAACCAACAGAGGAUUGAGCAUCA
B11: chr10:36853299:36853300:-_ENSMUSG00000069662_ENSMUST00000092584|mus_hu|FALSE|FALSE (ssRNA)
RNA: GGGAGUUCUACAGUCCGACGAUCGCCAUAUUAACAUUUUUUUCCGUUAGAAAACAUGAUGUACAAAACUUUGGAUGAAAAGAUACGUCAAAUUUCAUUUAAUCACUUGGAGGAAAAUCCACCAACUCCAUCAAUACCACCCAACAACAGAGGAUUGAGCAUCA
B12: chr10:33221514:33221515:-_ENSG00000150093_ENST00000302278|perfect_dup|FALSE|FALSE (ssRNA)
RNA: GGGAGUUCUACAGUCCGACGAUCAUUUGGCCCUGCUUGUAUACAUUCUCCGCAAGAUUUGGCAUUUGCUUUUAAACAUCUAUUUUUAUCUGUUUGGCCAAAUACAGAACAAAUCAAACUGAUCAAUCCAAUCCAGGAAACCAGCAACAGAGGAUUGAGCAUCA
B13: chr1:163116782:163116783:-_ENSG00000143248_ENST00000313961|hu_hu|FALSE|FALSE (ssRNA)
RNA: GGGAGUUCUACAGUCCGACGAUCUUGAAAUAGGUCUGUCCACACUUAAUAUUCUUUUUUAGACCAAUUUAGCUGGAAAUCUAUUACUUAACCCACAUUCAUUGAUAUCAUAGUCUUGUCUUAUAUUUCUUUGCCUUAGGCAGGCAACAGAGGAUUGAGCAUCA
B14: chr1:212156110:212156111:-_ENSG00000143493_ENST00000366992|hu_hu|motif|central (ssRNA)
RNA: GGGAGUUCUACAGUCCGACGAUCUCCAUGAGCUGCAAUGCCCCUGUUAUUAUGGUAACAGCACUCUUGGGCUAAUUUGACGGAAUCAGAAGAUCUGGGAGAAGAACUCACAUUUCCUGGAACUAUACUGAAGUAAUGUUUGAUCAACAGAGGAUUGAGCAUCA
B15: 1733375_1747237_158_CDS_ENSG00000132383_ENST00000254719|human|control|control (ssRNA)
RNA: GGGAGUUCUACAGUCCGACGAUCCCCCGUAGUAAUGGGACGGAUGUUGAUGACUUGGAGGAUGGGCUUUAUGUUUGUAUCCCCCUUCUGCAUGAUGGCCGCAAUGGCCCCCUCGCUCAGUUGGCCGACCAUGGCUCCACCGCCCAACAGAGGAUUGAGCAUCA
B16: chr4:147379129:147379130:-_ENSMUSG00000029016_ENSMUST00000137724|mus_mus|FALSE|FALSE (ssRNA)
RNA: GGGAGUUCUACAGUCCGACGAUCUGUCCUAGAGGAGCAUGGGCCAGGGUGGGUAUGCCUGGACCCUGUCCACUCUGGGCUAAACUGAUGGUCACACACACACACACACACACUCGAUGGACAAAUCACAACAGGACUGGCUUGCAACAGAGGAUUGAGCAUCA
B17: chr7:54825262:54825263:-_ENSG00000132432_ENST00000352861|hu_mus|FALSE|FALSE (ssRNA)
RNA: B10 RNA with U47G, U48C, C50U, C51U, U52A, G53C, A54C, C56G
B18: chr22:32879901:32879902:+_ENSG00000100225_ENST00000397426|hu_mus|hu_hu_hu_mus_False|8_28 (ssRNA)
RNA: GGGAGUUCUACAGUCCGACGAUCCUCUUCCAUACUCAUGGCAUCCUGAAUUGACUCAGCUUCAACAUUUUGACUAGGCCCUUCCAUACUGUCAUCAGUCCAGGCAUCAGACUGGGCGGCCUGUCCUUGGAAUGAAUCAGUCCCCAACAGAGGAUUGAGCAUCA
B19: chr2:216981417:216981418:+_ENSG00000079246_ENST00000392132|hu_hu|hu_hu_hu_mus_True|1_38 (ssRNA)
RNA: GGGAGUUCUACAGUCCGACGAUCCUGAUACUGGUCCUUGCCAGCAAGGGCAUUAUCAGUGCCAUCUGUGCCAUAGAGGACUAACGCAAUCUCAUCUUUGUUCUCAGAAAAUACCUGUCGUUGGACAAACAUAGUCAUCACCUUCAACAGAGGAUUGAGCAUCA
B20: chr1:220276048:220276049:+_ENSG00000067704_ENST00000302637|hu_hu|hu_hu_hu_mus_True|8_78 (ssRNA)
RNA: GGGAGUUCUACAGUCCGACGAUCGCAAAUUGCCUGGUUGGCGGGAAUUGUCCAAGGUUGUGUGGUCCAAACUAAAACGCUAACAGGGGAUGAGGCAUCUGUAAGAGACUCCAACUUCGGAGGAGGUUUUAAGAGAGGGAAUCUCAACAGAGGAUUGAGCAUCA
B21: chr13:55314627:55314628:+_ENSMUSG00000021488_ENSMUST00000099490|mus_hu|FALSE|FALSE (ssRNA)
RNA: GGGAGUUCUACAGUCCGACGAUCUACUGGUACUGGAAUCUGGAUCAUCCGAAAGGGCUGUCCUUGUCUUCAGGGGCAUCUAAAUUCACUGGAUUGGAAAAGGGCAGCAGACAAUUUCUUCUGGGUAGUUCACAGGUCUGAUCCCAACAGAGGAUUGAGCAUCA
B22: chr7:135839730:135839731:+_ENSMUSG00000042105_ENSMUST00000151237|mus_mus|FALSE|FALSE (ssRNA)
RNA: GGGAGUUCUACAGUCCGACGAUCACGCUGAUGUUUUGAAUUACAGUGGUUCUUUUAAUAGUCACAAGACUUGACACUGCUAAUAAAUAACAAAAUCGGAAUGCUUGUCAGAGUUUUAACAGACAUAAUGUUAAACUGAGAGUCCAACAGAGGAUUGAGCAUCA

This test concerns the target T1, UNK ZnF1-3. The experiment in a line: nsRBNS (natural sequence RNA bind-n-seq); RBNS binding buffer (assumed for nsRBNS): 25 mM Tris pH 7.5, 150 mM KCl, 3 mM MgCl2, 0.01% Triton X-100, 500 ug/ml BSA, 20 U/ml SUPERase-In, 4 C; UNK is unkempt and MSI1 is Musashi-1; names of the RNAs are library labels; protein concentration not given here; high values mean tight binding.
B1 came in with a binding signal of 0.845 enrichment R.
The value for B2 was 0.994 enrichment R.
The value for B3 was 0.78 enrichment R; that for B4 was 0.878 enrichment R.
The value for B5 was 1.56 enrichment R; that for B6 was 1.6 enrichment R; that for B7 was 1.23 enrichment R.
On to B8, for which the binding signal stood at 0.836 enrichment R.
Under B9 stands 1.59 enrichment R; under B10, 1.03 enrichment R.
Under B11 stands 1.21 enrichment R; under B12, 0.912 enrichment R.
Under B13 stands 0.562 enrichment R; under B14, 1.09 enrichment R; under B15, 1 enrichment R.
In the case of B16, the binding signal stood at 1.8 enrichment R.
With B17, the binding signal was 1.45 enrichment R.
B18 gave a binding signal of 0.956 enrichment R.
The value for B19 was 0.718 enrichment R; that for B20 was 1.91 enrichment R; that for B21 was 1.04 enrichment R.
Under B22 stands 0.744 enrichment R.

For the origin of these results see PMC12136788.
